According to ChEMBL document CHEMBL1201862, “PubChem BioAssay data set” (2004):
“And” between values parts separate entries of the source, which are not always exact repeats. Identical values can stand only once.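 Dose response: 5 concentrations. Exposure: 48 h. Format: 96-well plates. Endpoint: linear interpolation; highest concentration if not reached. GI50 = concentration required for 50% inhibition of growth.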 The source made the active and inactive calls. Cut-off read from the data, not from the text of the source: active = GI50 up to about 1.1 µM and inactive = higher.

Tested on: NCI-H322M
Test: DTP human tumour cell line panel, 48 h

| SMILES | GI50 |
| --- | --- |
| Cc1cc(/N=N/c2ccc(/N=N/c3c(O)c(S(=O)(=O)O)cc4cc(S(=O)(=O)O)ccc34)cc2C)ccc1/N=N/c1ccc2cc(S(=O)(=O)O)cc(S(=O)(=O)O)c2c1 | inactive: > 78.2 µM |
| COC(=O)N/N=C(\c1ccccc1)c1ccc(OC)cc1 | inactive: > 100 µM |
| O=c1[nH]ncc2[nH]c3c(c12)CCc1ccccc1-3 | inactive: 37.2 µM |
| N#CC(C#N)=c1c(=O)c2c3ccccc3cc3cccc1c32 | inactive: > 100 µM |
| CSC1=C(SC)C(=O)c2cn(C)c(=O)cc2C1=O | inactive: 18.3 µM |
| COC(=O)C1C(=O)C(C(=O)OC)C2CCC1N2C (stereo not drawn) | inactive: > 100 µM |
| N#Cc1ccc2cc3c(cc2c1)OCO3 | inactive: 46.5 µM |
| Nc1nc2c(N)cc(C(F)(F)F)cc2nc1-c1ccccc1 | inactive: > 100 µM |
| CCC1c2[nH]c3ccccc3c2C[C@H]2C(=O)NC(COC(C)(C)C)C(=O)N12 (stereo partly drawn) | inactive: 77.6 µM |
| CC/C=C\C/C=C\C/C=C\CCCCCCCC(=O)OCC(O)CO (stereo not drawn) | inactive: > 67.8 µM |
| CCOC(=O)[C@]12C3C=CC(C3)C1C(=O)C1OC12 (stereo partly drawn) | inactive: > 100 µM |
| O=C1C(Cl)N(c2cccc(Cl)c2)C1c1c[nH]c2ccccc12 (stereo not drawn) | inactive: > 100 µM |
| O=C1N=C(SC2OC(CO)C(O)C(O)C2O)S/C1=C\c1ccccc1 (stereo not drawn) | inactive: > 100 µM |
| Cn1cc(NC(=O)c2cc(NC(=O)CCCCCC(=O)Nc3cc(C(=O)Nc4cc(C(=O)NCCC(=N)N)n(C)c4)n(C)c3)cn2C)cc1C(=O)NCCC(=N)N | inactive: > 100 µM |
| O=c1[nH]c(Cc2ccccc2)nc2c1sc1nc3ccccc3n12 | inactive: > 100 µM |
| O=C1CCC(=O)N1n1c(Cc2ccc(Cl)cc2)n[nH]c1=O | inactive: > 100 µM |
| Cc1ccc(C)c(N2C(=O)C(=O)C(c3nc4ccccc4s3)/C(=N/N)C2=O)c1 (stereo not drawn) | inactive: > 100 µM |
| COc1cc(/N=N\c2cccc(S(=O)(=O)O)c2)c(C)cc1/N=N\c1ccc(/C=C/c2ccc(/N=[N+](/[O-])c3ccc(/C=C/c4ccc(/N=N\c5cc(C)c(/N=N/c6cccc(S(=O)(=O)O)c6)cc5OC)cc4)c(S(=O)(=O)O)c3)cc2S(=O)(=O)O)cc1 | inactive: > 100 µM |
| CCCCCc1cc2cc3c(c(O)c2c(=O)[nH]1)C1(CC3)C(=O)c2c(O)c3c(c(O)c2C1=O)C(=O)C(OC)=CC3=O (stereo not drawn) | inactive: 2.56 µM |
| Cc1ccc(Nc2nc(=O)c3c([nH]c4ccccc43)s2)cc1 | inactive: 13.5 µM |
| CCOC(=O)c1sc2nc(SC)nc3c2c1NCN3C | inactive: 41.2 µM |
| CN(C)Cc1cc(C(=O)/C=C/c2ccc(Cl)cc2Cl)cc(CN(C)C)c1O | inactive: 3.97 µM |

| SMILES | GI50 |
| --- | --- |
| CC[C@@H]1C[C@H]2CC3c4[nH]c5ccc(O)cc5c4CCN(C2)C31 | inactive: > 100 µM |
| CCOC(=O)CCC(NC(=O)Cc1ccc(Nc2nc3cc(F)c(F)cc3nc2C(=O)OCC)cc1)C(=O)OCC (stereo not drawn) | inactive: > 100 µM |
| NC(=O)c1cn(Cc2ccccc2)c(=O)n1Cc1ccccc1 | inactive: > 100 µM |
| C[N+]1(CCCl)CC[N+](C)(CCCl)CC1 (stereo not drawn) | inactive: > 100 µM |
| Cc1cccc(Cl)c1NC(=O)c1cccc([N+](=O)[O-])c1O | inactive: 61.4 µM |
| NNC(=O)CNc1cccc(Br)c1 | inactive: > 100 µM |
| C=C1C(=O)O[C@@H]2C[C@@H]3[C@]4(CC[C@]5(C)[C@@H]([C@H](C)CC/C=C(\C)C=O)CC[C@@]35C)C[C@]4(CCC(=O)OC)[C@H]12 | inactive: 2.55 µM |
| c1ccc(C2CC(c3ccc4ccccc4c3)=Nc3ccccc3S2)cc1 (stereo not drawn) | inactive: 20.9 µM |
| O=C1C(=C2SC(c3ccccc3)(c3ccccc3)c3ccccc32)C(=O)c2ccccc21 | inactive: > 100 µM |
| CC12CCCC3(CC(=O)C(C)(C)C3C(=O)C1)C2 (stereo not drawn) | inactive: > 100 µM |
| COc1ccc2c(c1)c1c3c(ccc4ncn2c43)N(CCN(C)C)CCN=1 | active: 0.322 µM |
| C=C(C)C1CC=C(C)CC1 (stereo not drawn) | inactive: 968 µM |
| CCOc1ccccc1-c1nc2c(s1)C(=O)c1ccccc1C2=O | inactive: 15.9 µM |
| COc1ccc(COCC[C@H](C)OC2OC(CO[Si](C)(C)C(C)(C)C)C(OC(=O)CCCN=[N+]=[N-])C(OC(=O)CCCN=[N+]=[N-])C2OC(=O)CCCN=[N+]=[N-])cc1 (stereo partly drawn) | inactive: > 100 µM |
| CC(=O)OC1COC(N2C(=O)C(=O)c3ccccc32)C(OC(C)=O)C1OC(C)=O (stereo not drawn) | inactive: > 100 µM |
| C=CCC1(O)C(=O)OC2C(O)COC21O (stereo not drawn) | inactive: > 100 µM |
| Cc1ccc2nc(C(=O)O)c(=O)[nH]c2c1 | inactive: > 100 µM |
| O=C1c2cc(Cl)ccc2-n2c(noc2=O)C2CSCN12 (stereo not drawn) | inactive: > 100 µM |
| COC(=O)C12C3C4C1C1C2C3C41C(=O)OC(C)(C)C (stereo not drawn) | inactive: > 100 µM |
| CCOC(=O)/C=C(/C(=O)OCC)n1ccc(=O)n(Cc2cnnn2CCCCOC(C)=O)c1=O | inactive: > 100 µM |
| Cc1ccc(Nc2ccc(Nc3ccc(C)cc3)c3c2C(=O)c2c(O)ccc(O)c2C3=O)cc1 | inactive: > 100 µM |
| O=C(/C(=N/Nc1ccccc1)c1ccc([N+](=O)[O-])cc1)c1ccc([N+](=O)[O-])cc1 | inactive: > 100 µM |

| SMILES | GI50 |
| --- | --- |
| C[n+]1ccc2[nH]c3ccccc3c2c1 | inactive: > 100 µM |
| O=S(=O)(CC(Cl)c1ccccc1)c1nc2ccccc2s1 (stereo not drawn) | inactive: 18.4 µM |
| Nc1ccccc1NC(=O)c1ccc(CNC(=O)OCc2cccnc2)cc1 [ENTINOSTAT] | inactive: 1.47 µM |
| Cc1ccc(C)n1-c1ccccc1C1C=Cn2c3c1c(=O)c(OC(C)C)c(OC(C)C)c-3n[nH]c2=O (stereo not drawn) | inactive: 44.9 µM |
| COC(=O)c1c(-c2ccc(Cl)cc2)cc2c3ccccc3n(C)c2c1C(=O)OC | inactive: > 100 µM |
| C=[N+](CNC(=O)CNC(=O)C(Cc1ccc([N+](=O)[O-])cc1)NC(=O)OC(C)(C)C)C(=O)CNC(=O)C(Cc1ccc([N+](=O)[O-])cc1)NC(=O)OC(C)(C)C (stereo not drawn) | inactive: 59.2 µM |
| CCCc1ccc(/N=C\c2cc(OC)c(OC)c(OC)c2)cc1 | inactive: > 100 µM |
| N#CCc1c(F)c(F)c(F)c(F)c1F | inactive: > 100 µM |
| O=S(=O)(c1ccccc1)C1CN(Cc2ccccc2)CCN(Cc2ccccc2)C1 | inactive: > 59.4 µM |
| CCOC1=NC(C(F)(F)F)(C(F)(F)F)N=C(N2CCOCC2)O1 | inactive: > 100 µM |
| CC12O[C@]3([C@H](C(=O)N4CCOC43C)[C@H]1Cl)[C@H]1O[C@H]12 (stereo partly drawn) | inactive: > 100 µM |
| Cn1ccnc1CCc1ccc(Cl)cc1Cl | inactive: > 100 µM |
| CCOC(=O)c1c(SCCN2CCCCC2)n(-c2ccccc2)c(=S)n(-c2ccccc2)c1=O | inactive: 36.1 µM |
| CCOC(=O)C1(C(=O)OCC)OC(=O)NC2=C1CCCC2 | inactive: > 100 µM |
| COC(=O)C1OC(O[C@H]2CC[C@]3(C)[C@H]4CC=C5[C@@H]6CC(C)(C)CC[C@]6(C(=O)OC6OCC(O)C(O)C6OC6OC(C)C(OC7OCC(O)C(O)C7O)C(O)C6O)CC[C@@]5(C)[C@]4(C)CC[C@H]3C2(C)C)C(O)C(O)C1O (stereo partly drawn) | inactive: 15.2 µM and inactive: 13.2 µM |
| O=[N+]([O-])c1ccc(N/N=C2\C=CCCC2)c([N+](=O)[O-])c1 | inactive: 28.2 µM |
| O=C(CC1C(=O)Nc2ccccc2[S+]1[O-])Nc1cccc(Cl)c1 (stereo not drawn) | inactive: > 51.3 µM |
| C#CCOC(=O)c1ccccc1OC(C)=O | inactive: > 100 µM |
| N#Cc1cc2c(n(C3OC(CO)C(O)C(O)C3O)c1=S)CCCCC2 (stereo not drawn) | inactive: > 100 µM |
| COc1cc2c(c(OC)c1OC)-c1ccc(SC)c(=O)cc1C(CO)C2 (stereo not drawn) | active: 0.279 µM |
| COC(=O)c1ccccc1NC(=S)NN(C)C | inactive: > 100 µM |
| Cc1cc(OP2(=O)NCc3ncccc3O2)ccc1Cl (stereo not drawn) | inactive: > 100 µM |

| SMILES | GI50 |
| --- | --- |
| C/C=C/C(CC(O)(C(F)(F)F)C(F)(F)F)=N/NC(N)=S | inactive: > 10 µM |
| CCOC(=O)C1(C#N)C(=O)c2cc[n+](CC[n+]3ccc4c(c3)C(=O)C(C#N)(C(=O)OCC)C4=O)cc2C1=O (stereo not drawn) | inactive: > 100 µM |
| COC(=O)c1ccccc1C1CN=NC12Cc1ccc3ccccc3c1C2=O (stereo not drawn) | inactive: 67.6 µM |
| CC(C)(C)OC(=O)Cc1ccc2c(ccn2Cc2ccccc2)c1 | inactive: > 100 µM |
| c1ccc2sc(SCN(C3CCCCC3)C3CCCCC3)nc2c1 | inactive: > 100 µM |
| CCN(c1n[n+]2c(-c3ccccc3)csc2s1)c1n[n+]2c(-c3ccccc3)csc2s1 | inactive: > 100 µM |
| Cc1ccccc1NC(=S)N/N=C1\C(=O)Nc2ccccc21 | inactive: > 100 µM |
| CCOC(=O)Cn1c(=O)n(C)c(=O)c2[nH]cnc21 | inactive: > 100 µM |
| CO/C(N)=C(C#N)/N=C/c1ccc2ccccc2c1 | inactive: 35.5 µM |
| Cn1c(=O)[nH]n(-c2ccc3ccccc3c2)c1=O | inactive: > 100 µM |
| Clc1ccc(OCC2NC3CCC2CC3)cn1 (stereo not drawn) | inactive: 35.3 µM |
| CCc1c(O)cc(=O)oc1-c1ccc(OC)c(OC)c1 | inactive: > 100 µM |
| CC(C)c1c(O)ccc2c1CCC1C(C)(C)CCCC21C (stereo not drawn) | inactive: 18 µM |
| C[C@]12CCC(=O)C=C1CC[C@@H]1[C@@H]2CC[C@]2(C)C(=O)/C(=C/c3ccncc3)C[C@@H]12 | inactive: 11.6 µM |
| O=C(O)C1CC2(C1)CC(C(=O)O)C2 (stereo not drawn) | inactive: > 100 µM |
| Cc1ccc(S(=O)(=O)N2CCCCN(S(=O)(=O)c3ccc(C)cc3)Cc3ccccc3OCCOCCOc3c4cccc3Cc3cccc5c3OCCOCCOc3ccccc3CN(S(=O)(=O)c3ccc(C)cc3)CCCN(S(=O)(=O)c3ccc(C)cc3)Cc3ccccc3OCCOCCOc3c(cccc3C4)Cc3cccc(c3OCCOCCOc3ccccc3C2)C5)cc1 | inactive: > 100 µM |
| CC(C)[Si]1(C(C)C)OCC2OC(N3C(=O)NC(=O)C[C@@H]3C(O)c3ccccc3)CC2O[Si](C(C)C)(C(C)C)O1 (stereo partly drawn) | inactive: 14 µM |
| Oc1cccc2cc(Br)cnc12 | inactive: 29.2 µM |
| CC(C)(C)c1cc(C(=O)C2Cc3ccccc3C(=O)O2)cc(C(C)(C)C)c1O (stereo not drawn) | inactive: 14.1 µM |
| Cc1c(C(=O)O)n(C)c(=O)n(C)c1=O | inactive: > 100 µM |
| CN(C)CCC(/C=C/c1ccccc1)=N\Nc1ccc(Cl)c(Cl)c1 | inactive: 3.1 µM |
| Cc1nc2c(n1CCN(C)C)C(=O)c1ccccc1C2=O | inactive: 23.2 µM |
